Data from PubChem BioAssay AID485281 (National Center for Advancing Translational Sciences (NCATS), 2010).
The campaign covered roughly 350,000 compounds. About 260 (0.074%) were called active. Inconclusive results, whose numbers are uncertain, are shown with a selection of clear calls. Calls follow the shape of the dose curve; as a rule, active = well fitted inhibition curve with a large enough effect; inconclusive = small, poorly fitted or top-dose-only effect; inactive = no such curve, though single readings can be large or run the other way. Potencies of inconclusive entries are doubtful fits and often do not repeat.

Biological target: Ferritin light chain (Equus caballus) (UniProt P02791)
Assay: qHTS Assay for Identification of Novel General Anesthetics; also: nearly all actives have a fitted effect of over 20% in size
Conditions: apoferritin/1-aminoanthracene competitive binding, fluorescence; activity change, negative = displacement: at 77.5 µM (top of the series)
In short: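 Horse-spleen apoferritin (10 uM) was mixed with 50% saturated 1-aminoanthracene in PBS, exposed to compounds for 10 min at room temperature, and read for fluorescence (ex 380 nm, em 535 nm). Competitive displacement was fitted with a four-parameter Hill equation.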
% is scaled to controls: 0 for no effect and ±100 for the full control effect; potency is read from the fitted curve at half-maximal effect; tags tell the direction and shape of the fitted curve.

Chain of UniProt P02791 (P02791 whole entry, looked up): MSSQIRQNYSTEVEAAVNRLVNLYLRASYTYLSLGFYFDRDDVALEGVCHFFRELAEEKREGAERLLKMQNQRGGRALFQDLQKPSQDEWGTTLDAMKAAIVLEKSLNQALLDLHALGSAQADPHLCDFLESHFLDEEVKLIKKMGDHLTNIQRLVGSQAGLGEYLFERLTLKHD

Q: For `CCC1(C)Cc2c(sc3c2c2ncnn2c2nnc(SCC(=O)NCc4ccco4)n32)CO1` (centres undefined), which Potency is on record?
A: Its Potency is inconclusive: 31.6 µM [inhibitor, partial curve].

Q: Which Potency does the source give for `CCCCCCC(=O)OCC(=O)c1ccc2c(c1)NC(=O)CO2` here?
A: The Potency was inconclusive: 28.2 µM [inhibitor, partial curve].

Q: How did the Potency turn out when `CN(C)S(=O)(=O)c1cc(NC(=O)CN2CCN(c3ccccc3F)CC2)ccc1Cl` was run?
A: Its Potency is inconclusive: 31.6 µM [inhibitor, single point].

Q: For `O=C(NCCc1ccc(Cl)cc1)c1ccc(CSCc2cccc(Cl)c2)o1`, which “activity change, negative = displacement” value is on record?
A: Its value is inactive: 2.52%.

Q: `Cn1cc(S(=O)(=O)c2cccc(Cl)c2)c(=O)c2cc(F)c(N3CCCCC3)cc21` was tested. Which “activity change, negative = displacement” value did it give?
A: Its value is inactive: -10.2%.

Q: `Nc1nnc(SCc2c(F)cccc2Cl)s1` was tested. Which Potency did it give?
A: The Potency was inconclusive: 50.1 µM [inhibitor, single point].

Q: `O=C(CCC(=O)N1CCOc2ccccc21)Nc1cc(F)ccc1F` was tested. Which Potency did it give?
A: Its Potency is inconclusive: 39.8 µM [inhibitor, single point].

Q: For `CCCN1C(=O)/C(=C/c2cc(C)n(C)c2C)SC1=Nc1ccc(OCC)cc1`, which Potency is on record?
A: Its Potency is inconclusive: 44.7 µM [inhibitor, partial curve].

Q: With `Cc1cc(NCc2ccccn2)ccc1Br` as the compound, how does the Potency read?
A: The Potency was inconclusive: 31.6 µM [inhibitor, partial curve].

Q: `CC(=O)C1=C(S(=O)(=O)c2ccc(C)cc2)CS(=O)(=O)C1` was tested. Which Potency did it give?
A: Its Potency is inconclusive: 28.2 µM [inhibitor, single point].

Q: How did the Potency turn out when `Cc1noc(C)c1COC(=O)C1COc2ccccc2O1` (centres undefined) was run?
A: The Potency was inconclusive: 50.1 µM [inhibitor, single point].

Q: Which Potency does the source give for `Cc1cnc(NC(=O)C2COc3ccccc3O2)s1` (centres undefined) here?
A: Its Potency is inconclusive: 25.1 µM [inhibitor, partial curve].

Q: With `O=C(N/N=C/c1cccc([N+](=O)[O-])c1)C1CC(=O)N(c2ccc(Cl)cc2)C1` (centres undefined) as the compound, how does the Potency read?
A: The Potency was inconclusive: 5.01 µM [inhibitor, full curve].

Q: `O=C(CS(=O)(=O)c1cccc(C(F)(F)F)c1)Nc1ccccc1Cl` was tested. Which Potency did it give?
A: Its Potency is inconclusive: 35.5 µM [inhibitor, partial curve].

Q: For `CS(=O)(=O)N(Cc1ccccc1)c1ccc(C(=O)Nc2ccc(Cl)cc2)cc1`, which “activity change, negative = displacement” value is on record?
A: The value was inactive: -4.69%.

Q: Which “activity change, negative = displacement” value does the source give for `COC(=O)c1ccc(C(NC(=O)OCc2ccccc2)/C(I)=C/[C@@H](C)C(=O)NCc2ccncc2)cc1` (some centres undefined) here?
A: The value was inactive: -12.4%.

Q: How did the Potency turn out when `CCn1c(SCC(=O)N2CCCCC2)nnc1-c1ccc(S(=O)(=O)N2CCN(C)CC2)cc1` was run?
A: Its Potency is inconclusive: 31.6 µM [inhibitor, partial curve].

Q: How did the Potency turn out when `Cc1ccc(Cn2c(C)c3cnn(CC(=O)NC4CCCC4)c(=O)c3c2C)cc1` was run?
A: The Potency was inconclusive: 7.08 µM [inhibitor, partial curve].

Q: With `COc1cccc(/C=N/Nc2ccc([N+](=O)[O-])cn2)c1O` as the compound, how does the “activity change, negative = displacement” value read?
A: Its value is inactive: 6.13%.

Q: How did the Potency turn out when `CS(=O)(=O)N1CCN=C1SCc1ccccc1` was run?
A: Its Potency is inconclusive: 25.1 µM [inhibitor, partial curve].

Q: With `COc1ccccc1NC(=O)C1(c2ccccc2)CCCC1` as the compound, how does the Potency read?
A: The Potency was inconclusive: 28.2 µM [inhibitor, partial curve].

Q: Which “activity change, negative = displacement” value does the source give for `O=c1c2c(nc3cc(-c4ccccc4)[nH]n13)CCC2` here?
A: Its value is inactive: -4.01%.

Q: For `COc1ccc(-c2oc3cccnc3c2/C=C/c2ccc(OC)c(OC)c2)cc1`, which “activity change, negative = displacement” value is on record?
A: The value was inactive: 68.5%.

Q: How did the Potency turn out when `COC(=O)c1cc(-c2ccc(Cl)cc2Cl)n[nH]1` was run?
A: Its Potency is inconclusive: 39.8 µM [inhibitor, partial curve].

Q: For `Cc1ccc(CNC(=O)C2CCCCC2C(=O)O)cc1` (centres undefined), which Potency is on record?
A: The Potency was inconclusive: 28.2 µM [inhibitor, partial curve].

Q: `COc1cc(C2Nc3ccccc3-c3nnc(SCc4ccc(C)cc4)nc3O2)cc(OC)c1O` (centres undefined) was tested. Which Potency did it give?
A: The Potency was inconclusive: 10 µM [inhibitor, partial curve].

Q: With `C/C(=N\NC(=O)C1CC1)c1ccccc1Br` as the compound, how does the Potency read?
A: The Potency was inconclusive: 31.6 µM [inhibitor, single point].

Q: With `CCCC(C)NC(=S)NC(=O)c1cc(S(=O)(=O)N2CCOCC2)ccc1C` (centres undefined) as the compound, how does the Potency read?
A: Its Potency is inconclusive: 56.2 µM [inhibitor, single point].

Q: `CCN1C=C(Cc2cccs2)C2=C(C1)C(c1cccs1)C(C#N)=C(N)O2` (centres undefined) was tested. Which Potency did it give?
A: Its Potency is inconclusive: 44.7 µM [inhibitor, partial curve].

Q: With `C=CCSc1nccc(-c2nn(-c3ccc(C)cc3)ccc2=O)n1` as the compound, how does the Potency read?
A: Its Potency is inconclusive: 17.8 µM [inhibitor, partial curve].

Q: `COc1ccccc1NS(=O)(=O)c1cc(NC(=O)C(C)C)ccc1N1CCCCC1` was tested. Which “activity change, negative = displacement” value did it give?
A: The value was inactive: -13%.

Q: Which Potency does the source give for `O=C(N/C=N/OCc1ccc(Cl)cc1Cl)NOCc1ncc(C(F)(F)F)cc1Cl` here?
A: The Potency was inconclusive: 25.1 µM [inhibitor, partial curve].

Q: `CC(=O)c1ccc(S(=O)(=O)N2CCN(C(=O)CSc3ccc(C)c(C)c3)CC2)cc1` was tested. Which Potency did it give?
A: The Potency was inconclusive: 31.6 µM [inhibitor, single point].

Q: With `Cc1ccc(CCNC(=O)C23CN(Cc4ccccc4)CC2C(c2ccc([N+](=O)[O-])cc2)=NO3)cc1` (centres undefined) as the compound, how does the Potency read?
A: The Potency was inconclusive: 15.8 µM [inhibitor, partial curve].

Q: For `CCC1=NC(c2ccccc2Cl)N(O)C1(C)C` (centres undefined), which Potency is on record?
A: The Potency was inconclusive: 28.2 µM [inhibitor, partial curve].

Q: How did the Potency turn out when `CC(=O)N1CCc2c(sc3c2c(=O)n(-c2ccc(C)cc2)c(=O)n3Cc2ccccc2C)C1` was run?
A: Its Potency is inconclusive: 8.91 µM [inhibitor, full curve].

Q: Which “activity change, negative = displacement” value does the source give for `O=C(OCCN1C(=O)c2cccc3c(N4CCOCC4)ccc(c23)C1=O)c1cccc(Cl)c1` here?
A: Its value is inactive: 8.57%.

Q: `CC1CCN(C(C(=O)Nc2ccc3c(c2)OCO3)c2ccccc2)CC1` (centres undefined) was tested. Which Potency did it give?
A: Its Potency is inconclusive: 28.2 µM [inhibitor, partial curve].

Q: Which Potency does the source give for `COc1cccc(NC(=O)COC(=O)Cc2ccc(Cl)cc2)c1` here?
A: Its Potency is inconclusive: 25.1 µM [inhibitor, partial curve].

Q: For `CCN1CCN(c2oc(/C=C/c3cc(OC)c(OC)c(OC)c3)nc2C#N)CC1`, which “activity change, negative = displacement” value is on record?
A: The value was inactive: 57.5%.

Q: How did the “activity change, negative = displacement” value turn out when `CC(C)C(=O)OCc1cc(=O)n2nc(C3CC3)sc2n1` was run?
A: Its value is inactive: -8.48%.

Q: `N#CCSc1nc2ccccc2c2nc3ccccc3n12` was tested. Which “activity change, negative = displacement” value did it give?
A: The value was inactive: -1.94%.

Q: How did the “activity change, negative = displacement” value turn out when `CC(CS(=O)(=O)c1ccc2c(c1)NC(=O)CS2)C(=O)NCc1ccccc1Cl` (centres undefined) was run?
A: The value was inactive: -8.74%.

Q: Which “activity change, negative = displacement” value does the source give for `Cn1c(=O)c2cc(S(=O)(=O)N3CCOCC3)ccc2n(C)c1=O` here?
A: Its value is inactive: -0.403%.
